In paper PMC9911399, “Two distinct binding modes provide the RNA-binding protein RbFox with extraordinary sequence specificity” one finds binding signal data, which are given here for 20 molecules.

T1: RBFOX1 RRM RbFoxmut (Fox-RRM*) (Homo sapiens, UniProt Q9NWB1 109-208, R118D;E147R;N151S;E152T)
T1 sequence: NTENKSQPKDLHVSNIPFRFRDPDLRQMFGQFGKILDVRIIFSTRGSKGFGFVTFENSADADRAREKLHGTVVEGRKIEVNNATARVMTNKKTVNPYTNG

B1: CCACCAC (DNA:RNA)
RNA: GGGAGACCGGAAUUCAGAUUGUCCCCACCACUUAAAUCCCGUCGUAGCCACCA
DNA 1: CAATCTGAATTCCGGTCTCCC
DNA 2: TGGTGGCTACGACGGGATT
B2: UCCUUGG (DNA:RNA)
RNA: B1 RNA with C25U, A27C, C28U, C29U, A30G, C31G
DNA 1: CAATCTGAATTCCGGTCTCCC
DNA 2: TGGTGGCTACGACGGGATT
B3: UACACCG (DNA:RNA)
RNA: B1 RNA with C25U, C26A, A27C, C28A, A30C, C31G
DNA 1: CAATCTGAATTCCGGTCTCCC
DNA 2: TGGTGGCTACGACGGGATT
B4: UACACAU (DNA:RNA)
RNA: B1 RNA with C25U, C26A, A27C, C28A, C31U
DNA 1: CAATCTGAATTCCGGTCTCCC
DNA 2: TGGTGGCTACGACGGGATT
B5: CUCAGAU (DNA:RNA)
RNA: B1 RNA with C26U, A27C, C28A, C29G, C31U
DNA 1: CAATCTGAATTCCGGTCTCCC
DNA 2: TGGTGGCTACGACGGGATT
B6: UAGCCCC (DNA:RNA)
RNA: B1 RNA with C25U, C26A, A27G, A30C
DNA 1: CAATCTGAATTCCGGTCTCCC
DNA 2: TGGTGGCTACGACGGGATT
B7: UGUGUAG (DNA:RNA)
RNA: B1 RNA with C25U, C26G, A27U, C28G, C29U, C31G
DNA 1: CAATCTGAATTCCGGTCTCCC
DNA 2: TGGTGGCTACGACGGGATT
B8: GAACCGU (DNA:RNA)
RNA: B1 RNA with C25G, C26A, A30G, C31U
DNA 1: CAATCTGAATTCCGGTCTCCC
DNA 2: TGGTGGCTACGACGGGATT
B9: UUAGCGA (DNA:RNA)
RNA: B1 RNA with C25U, C26U, C28G, A30G, C31A
DNA 1: CAATCTGAATTCCGGTCTCCC
DNA 2: TGGTGGCTACGACGGGATT
B10: GUGCCAG (DNA:RNA)
RNA: B1 RNA with C25G, C26U, A27G, C31G
DNA 1: CAATCTGAATTCCGGTCTCCC
DNA 2: TGGTGGCTACGACGGGATT
B11: GGUCCAC (DNA:RNA)
RNA: B1 RNA with C25G, C26G, A27U
DNA 1: CAATCTGAATTCCGGTCTCCC
DNA 2: TGGTGGCTACGACGGGATT
B12: GAGUAUC (DNA:RNA)
RNA: B1 RNA with C25G, C26A, A27G, C28U, C29A, A30U
DNA 1: CAATCTGAATTCCGGTCTCCC
DNA 2: TGGTGGCTACGACGGGATT
B13: ACGUCCG (DNA:RNA)
RNA: B1 RNA with C25A, A27G, C28U, A30C, C31G
DNA 1: CAATCTGAATTCCGGTCTCCC
DNA 2: TGGTGGCTACGACGGGATT
B14: GUUGUCU (DNA:RNA)
RNA: GGGAGACCGGAAUUCAGAUUGUCCGUUGUCUUUAAAUCCCGUCGUAGCCACCA
DNA 1: CAATCTGAATTCCGGTCTCCC
DNA 2: TGGTGGCTACGACGGGATT
B15: ACCUCGU (DNA:RNA)
RNA: B1 RNA with C25A, A27C, C28U, A30G, C31U
DNA 1: CAATCTGAATTCCGGTCTCCC
DNA 2: TGGTGGCTACGACGGGATT
B16: UCCACGA (DNA:RNA)
RNA: B1 RNA with C25U, A27C, C28A, A30G, C31A
DNA 1: CAATCTGAATTCCGGTCTCCC
DNA 2: TGGTGGCTACGACGGGATT
B17: CUCGCCU (DNA:RNA)
RNA: B14 RNA with G25C, U27C, U29C
DNA 1: CAATCTGAATTCCGGTCTCCC
DNA 2: TGGTGGCTACGACGGGATT
B18: UUCGAGA (DNA:RNA)
RNA: B14 RNA with G25U, U27C, U29A, C30G, U31A
DNA 1: CAATCTGAATTCCGGTCTCCC
DNA 2: TGGTGGCTACGACGGGATT
B19: AUCGUAA (DNA:RNA)
RNA: B14 RNA with G25A, U27C, C30A, U31A
DNA 1: CAATCTGAATTCCGGTCTCCC
DNA 2: TGGTGGCTACGACGGGATT
B20: CAGCAAU (DNA:RNA)
RNA: B1 RNA with C26A, A27G, C29A, C31U
DNA 1: CAATCTGAATTCCGGTCTCCC
DNA 2: TGGTGGCTACGACGGGATT

Numbering of substitutions follows the chain as printed; changes in the protein carry UniProt numbers. The list shows a part of the results.

This test addresses T1, RBFOX1 RRM RbFoxmut (Fox-RRM*). In words: EMSA; HiTS-Eq, 1 nM pool, 10 min; buffer printed only for the single-RNA assays: 10 mM Tris pH 7.5, 150 mM NaCl, 3.4 mM EDTA, 0.001% NP-40, 30 C. Conditions: tags: His6 N-terminal (pET28a); label: 5' 32P. The method in brief:
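These values rest on relative association constants, computed from read-count changes of each RNA species versus the control reaction and normalised to the cognate motif. Reads came from free RNA recovered by 8% native PAGE after purified RbFox RRM (wild type or mutant) at increasing concentrations was equilibrated for 10 min in 50 µL with 1 nM of a 5′-radiolabelled pool with 7 randomized nucleotides and DNA-annealed flanks.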
For the molecule B1, the binding signal was 0.0828 KA relative to UGCAUGU.

As to B2, the binding signal was 0.0776 KA relative to UGCAUGU.

On to B3, for which the binding signal was 0.0696 KA relative to UGCAUGU.

On to B4, for which the binding signal was 0.106 KA relative to UGCAUGU.

With B5, the binding signal is 0.118 KA relative to UGCAUGU.

Consider B6, for which the binding signal was 0.0774 KA relative to UGCAUGU.

As for B7, the binding signal was 0.196 KA relative to UGCAUGU.

In the case of B8, the binding signal was 0.126 KA relative to UGCAUGU.

Take B9: the binding signal was 0.0644 KA relative to UGCAUGU.

As for B10, the binding signal is 0.0858 KA relative to UGCAUGU.

As to B11, the binding signal is 0.087 KA relative to UGCAUGU.

Regarding B12, the binding signal is 0.237 KA relative to UGCAUGU.

As for B13, the binding signal is 0.121 KA relative to UGCAUGU.

Consider B14, for which the binding signal is 0.0966 KA relative to UGCAUGU.

With B15, the binding signal is 0.106 KA relative to UGCAUGU.

Regarding B16, the binding signal is 0.0743 KA relative to UGCAUGU.

Turning to B17, the binding signal is 0.0799 KA relative to UGCAUGU.

For the molecule B18, the binding signal was 0.0954 KA relative to UGCAUGU.

Regarding B19, the binding signal was 0.142 KA relative to UGCAUGU.

For the molecule B20, the binding signal was 0.0463 KA relative to UGCAUGU.
